Data taken from the GPR68 mutational scans of Howard et al. (2025).
Scores with a large standard error are left out. Not listed are two conditions whose scores span a narrow range. Read del as a deletion of the residues named and ins as an insertion between two positions. For some of these results: The data file names ogerin without a concentration.

B1: GPR68, Q15743 (parent)
chain: MGNITADNSSMSCTIDHTIHQTLAPVVYVTVLVVGFPANCLSLYFGYLQIKARNELGVYLCNLTVADLFYICSLPFWLQYVLQHDNWSHGDLSCQVCGILLYENIYISVGFLCCISVDRYLAVAHPFRFHQFRTLKAAVGVSVVIWAKELLTSIYFLMHEEVIEDENQHRVCFEHYPIQAWQRAINYYRFLVGFLFPICLLLASYQGILRAVRRSHGTQKSRKDQIQRLVLSTVVIFLACFLPYHVLLLVRSVWEASCDFAKGVFNAYHFSLLLTSFNCVADPVLYCFVSETTHRDLARLRGACLAFLTCSRTGRAREAYPLGAPEASGKSGAQGEEPELLTKLHPAFQTPNSPGSGGFPTGRLA

Assays:
[1] = variants of: B1; assay: cAMP reporter score (Enrich2 score, wild type = 0); higher = more signal; HEK293T, FACS bins; conditions: modulator: ogerin
[2] = variants of: B1; assay: surface expression score (Enrich2 score, wild type = 0); higher = more signal; HEK293T, FACS bins

Variant | cAMP reporter score ([1]; pH 6) | cAMP reporter score ([1]; pH 6.5) | surface expression score [2]
D118T | -0.906 | 2.72 | -1.36
D118_R119insG | -0.688 | -0.437 | -2.7
A122N | -0.802 | -1.85 | -0.643
A122V | -2.2 | -0.437 | 
A122W | -1.8 | -3.22 | -0.396
V123I | -0.656 | 1.71 | -1.13
R128P | -1.03 |  | 
H130_Q131insGS | -1.9 | 0.02 | 
F132Y | -0.401 | -2.46 | 
A138del | -1.41 |  | -2.94
L150R | -1.48 | -0.963 | -2.27
L157G | -1.41 | -0.965 | 0.185
H159del | -0.489 | -0.649 | -1.36
V171T | -0.595 |  | 0.678
A180D | 0.371 | 3.62 | -0.24
W181Y | 0.564 | -0.595 | 
Q182del | -0.9 | 0.124 | 0.492
F194K | -2.14 | -0.939 | -3.25
C199P | -2.58 | -1.25 | 
L202N | 1.03 | -2.29 | 
L202P | -1.93 | -0.741 | -1.48
S204H | -0.691 | -3.05 | -0.733

Variant | cAMP reporter score ([1]; pH 6) | cAMP reporter score ([1]; pH 6.5) | surface expression score [2]
V212_R213insG | -1.22 |  | -0.025
R213Q | 1.33 | 3.31 | 0.454
L229P | -0.665 | -0.426 | -0.288
V230R | -2.72 |  | 
S232_V234del | -1.8 | -0.732 | -1.52
A239D | -0.71 | -0.437 | 
C240N | -1.09 |  | -1.16
Y244P | -3.6 |  | -0.289
V253Y | 0.713 | 0.712 | 0.745
W254T | -0.281 |  | 0.654
Y268Q | -0.823 | -0.901 | 
Y268T | -0.692 | -1.72 | 
T313Y | 0.636 | -0.995 | -0.616
A319S | 1.15 |  | 0.107
Y320_P321del | 0.374 |  | -0.758
G329K | 1.22 |  | 0.613
F348Q | 0.251 |  | 0.676
Q49V |  | -0.834 | -0.864
K51D |  | 0.335 | -1.25
V58F |  | -1.42 | -0.931
D67_L68insG |  | -1.45 | 
I71_C72insGS |  | -2.36 | -3.48

Variant | cAMP reporter score ([1]; pH 6) | cAMP reporter score ([1]; pH 6.5) | surface expression score [2]
Y102E |  | -0.654 | 0.435
D118C |  | 6.74 | -1
Y120I |  | -0.333 | -3.32
A124_H125del |  | -1.29 | -1.12
F132E |  | -1.74 | -3.21
V141A |  | -2.06 | -0.826
L150M |  | -0.426 | 
A180F |  | -1.43 | -0.375
F190D |  | -1.77 | 
P197_I198insG |  | -1.52 | -1.98
L202R |  | -1.53 | -3.38
S204D |  | -1.34 | -1.89
L229I |  | -0.397 | -0.284
V230Q |  | -1.46 | -1.47
E255N |  | -1.1 | 0.531
C304R |  | -1.22 | 
R128N |  |  | -0.281
V171D |  |  | 0.764
A203V |  |  | -0.314
V230D |  |  | -2.26
